Measured values taken from patent US12709641B2.

Biological target: wild type tau (Homo sapiens (Human)), P10636
Test: Octet
Settings: remark: other sources report otherwise

Kd: > 200 nM
B1: V0009 (antibody, V domains shown)
VH: EVQLVESGGALVQPGGSLSLSCAASGFTFTDYYMSWVRQPPGKALEWLALIRNKAKGFTTEYSASVKGRFTISRDNSQSILLFQMNDLRADDSATYYCVRDINYWGQGTTLTVSS
VL: DIVMSQSPSSLAVSVGEKVTMS[sequence of about 80 residues not given]FGGGTKLEIK
